# Laboratory results taken from article PMC4336329 (PLoS ONE, 2015).
# Among all 310,000 compounds or so, about 14,000 (4.5%) showed an effect of 50% or more. The effect is printed as a negative number. The list shows a part of the results.
# Molecular target: human ether-à-go-go-related gene (hERG) potassium channel (human, UniProt Q12809)
# Assay: primary screen, population patch clamp on CHO cells stably expressing hERG
# 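Note: peak tail current of the secondary pulse compared with the same well before compound.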
# Sequence of human ether-à-go-go-related gene (hERG) potassium channel (Q12809 whole entry, looked up): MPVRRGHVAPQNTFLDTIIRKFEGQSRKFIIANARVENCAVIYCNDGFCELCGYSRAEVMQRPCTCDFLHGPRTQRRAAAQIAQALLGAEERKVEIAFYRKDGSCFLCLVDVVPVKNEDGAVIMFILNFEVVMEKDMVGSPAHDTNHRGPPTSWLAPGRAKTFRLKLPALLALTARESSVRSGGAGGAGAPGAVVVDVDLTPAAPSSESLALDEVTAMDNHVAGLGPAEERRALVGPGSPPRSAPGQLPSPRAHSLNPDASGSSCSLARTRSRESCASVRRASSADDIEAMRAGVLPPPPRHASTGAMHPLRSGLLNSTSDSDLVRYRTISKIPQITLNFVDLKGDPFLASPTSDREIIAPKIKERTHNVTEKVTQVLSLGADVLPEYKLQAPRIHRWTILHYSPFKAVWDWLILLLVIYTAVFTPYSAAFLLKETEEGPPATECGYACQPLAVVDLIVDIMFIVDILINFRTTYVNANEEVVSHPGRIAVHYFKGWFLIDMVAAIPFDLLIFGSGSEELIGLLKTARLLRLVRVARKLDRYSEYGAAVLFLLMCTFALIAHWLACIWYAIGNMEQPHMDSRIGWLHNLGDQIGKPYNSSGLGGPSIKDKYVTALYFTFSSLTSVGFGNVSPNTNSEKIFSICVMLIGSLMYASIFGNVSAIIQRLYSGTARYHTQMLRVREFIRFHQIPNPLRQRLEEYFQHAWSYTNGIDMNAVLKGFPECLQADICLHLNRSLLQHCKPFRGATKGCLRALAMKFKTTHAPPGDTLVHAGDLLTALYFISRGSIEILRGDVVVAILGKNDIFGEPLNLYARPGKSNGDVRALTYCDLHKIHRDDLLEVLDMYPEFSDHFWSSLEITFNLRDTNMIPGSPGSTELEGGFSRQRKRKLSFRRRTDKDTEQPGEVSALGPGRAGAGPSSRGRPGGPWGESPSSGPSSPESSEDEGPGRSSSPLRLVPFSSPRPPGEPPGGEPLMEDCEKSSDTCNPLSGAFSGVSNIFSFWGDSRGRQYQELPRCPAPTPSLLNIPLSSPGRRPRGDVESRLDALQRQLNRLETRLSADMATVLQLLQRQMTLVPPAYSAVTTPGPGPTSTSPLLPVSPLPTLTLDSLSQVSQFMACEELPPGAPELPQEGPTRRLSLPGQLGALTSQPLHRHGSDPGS
row,SMILES,"hERG current change (%, negative = inhibition) at 10uM"
1,CC(Oc1cccc(Cl)c1)C(=O)NCc1ccc(S(N)(=O)=O)cc1 (centres unmarked),10.5%
2,Cc1nc2ccccn2c1C(=O)Nc1ccc2c(c1)OCCO2,0.029%
3,O=C1c2ccccc2C(=O)C1c1ccc(Br)cc1,23%
4,COc1cc(C(CCN2CCN(c3ccccc3)CC2)c2c(OC)cc(OC)c3c(C)cc(=O)oc23)cc(OC)c1OC (centres unmarked),-6.01%
5,CN1CCN(C(=O)c2ccccc2NC(=O)CCN2C(=O)c3ccccc3C2=O)CC1,-3.71%
6,Cc1ccccc1NC(=S)NNC(=O)c1cccc(Br)c1,10.6%
7,COc1ccccc1Nc1ccc(Nc2ccccc2OC)nn1,-1.58%
8,O=C(CCN1C(=O)NC2(CCCC2)C1=O)Nc1ccc(-c2nc3ccccc3s2)cc1,-10.6%
9,Cl.OCCNc1nc(N2CCCCC2)nc2ccccc12,-58.2%
10,CCc1ccc(NS(=O)(=O)c2ccc(C)c(C(=O)N3CCOCC3)c2)cc1,15.7%
11,CCCn1nnc(NC(=S)NC(=O)Cc2ccccc2)n1,-3.57%
12,O=C(CN(Cc1ccco1)S(=O)(=O)c1cccs1)Nc1ccccc1C(F)(F)F,-32.8%
13,O=C(O)CSCC(=O)N1CCc2c([nH]c3ccccc23)C1C(F)(F)F (centres unmarked),20%
14,O=C(C1CCC(CNc2c(N3CCCCC3)c(=O)c2=O)CC1)N1CCCC1 (centres unmarked),-16.4%
15,CCCOc1ccc(-c2nc(OC)c3ccccc3n2)cc1,-2.04%
16,O=[N+]([O-])c1cnn(-c2nc(-c3ccccc3)cc(C(F)(F)F)n2)c1,8.82%
17,C/C(=N\S(=O)(=O)c1ccc(C)cc1)NC(=S)Nc1ccccc1,20.4%
18,COc1cccc(=O)c2c(C)n(CC(=O)c3ccccc3)c(C)c12,7.84%
19,O=C1NCCCC1C(=O)NCCN1C(=O)CCC1=O (centres unmarked),-0.791%
20,CCOC(=O)c1c(NC(=O)/C=C/c2ccc(C)o2)sc(C)c1C,2.09%
21,COc1ccc(-c2cn(-c3ccc(SC(F)F)cc3)c3[n+]2CCC3)cc1OC.[Br-],-62.4%
22,O=C(CCNC(=O)c1ccc(Cl)cc1)Nc1ncccc1O,9.95%

row,SMILES,"hERG current change (%, negative = inhibition) at 10uM"
1,O=C(CCc1ccccc1)NNC(=O)C1CCCCC1,-2.12%
2,O=C(CN1CCN(c2cccc(Cl)c2)CC1)NC1CCCc2ccccc21 (centres unmarked),3.17%
3,CC(=O)Nc1ccc(-c2csc(NC(=O)CC(NC(C)=O)c3ccccc3)n2)cc1 (centres unmarked),22.9%
4,CCOC(=O)CN1C(=O)C(O)(CC(=O)c2ccc3c(c2)CCCC3)c2ccccc21 (centres unmarked),-6.23%
5,Cc1ccccc1Oc1ccc(Oc2ccccc2C)nn1,14.7%
6,CCCCSc1ncnc2[nH]ncc12,-3.6%
7,CC1CC(C)(C)CC2(C1)NC(=O)N(CC(=O)NCCc1ccc3c(c1)OCCO3)C2=O (centres unmarked),2.63%
8,Cc1nn(CC(=O)N2CCC3(CC2)OCCO3)c(=O)c2cc3ccccc3n12,9.83%
9,COc1cc2c3nnc(-c4ccc(F)cc4)c-3cn(Cc3ccc(C)cc3)c2cc1OC,2.79%
10,CC(CNC(=O)CCS(=O)(=O)c1ccc2c(c1)NC(=O)CO2)c1ccccc1 (centres unmarked),-6.68%
11,CC(C)(c1ccccc1)c1ccc(OCC(O)CN2CCCC2)cc1.Cl (centres unmarked),-60.3%
12,NC(=O)C1CCN(C(=O)CCCCCn2c(=O)[nH]c3ccsc3c2=O)CC1,0.397%
13,Cc1ccc(CNC(=O)C2CCC(=O)N(Cc3cccc(C(F)(F)F)c3)C2)o1 (centres unmarked),-42.6%
14,COc1ccc(N2C(=O)CC(N3CCN(c4nc5ccccc5s4)CC3)C2=O)cc1 (centres unmarked),-30.9%
15,Cc1ccc(C(=O)Cn2c(=N)n(CCN3CCOCC3)c3ccccc32)cc1.[Br-],-59.9%
16,CC(C)Sc1nc2c(c(=O)n1-c1ccc(F)cc1)SCC2,16%
17,CCOc1cc(C(=O)Nn2cnnc2)cc(OCC)c1OCC,13.8%
18,CCS(=O)(=O)N1Cc2ccccc2CC1C(=O)Nc1ccc(OC)cc1OC (centres unmarked),-6.9%
19,Cc1ccccc1Nc1nnc(SCC(=O)Nc2ccccc2[N+](=O)[O-])s1,3.5%
20,COC(=O)c1sc(N/N=C/c2ccc(C(C)C)cc2)nc1C,15.1%
21,COc1cc(C(=O)Nc2cccc(C)n2)ccc1OCC(=O)N1CCOCC1,3.2%
22,CC(C)(C)C1CCc2c(sc(NC(=O)C3CC=CCC3C(=O)O)c2C#N)C1 (centres unmarked),6.43%
